This note sets out measurements from the BET-seq Pho4 binding data (Le et al. 2018).

This is one part of the list. Values were computed here from the reads of four pooled replicates and scatter widely.

This test concerns the target T1, Pho4 (S. cerevisiae) (UniProt P07270).
T1 sequence: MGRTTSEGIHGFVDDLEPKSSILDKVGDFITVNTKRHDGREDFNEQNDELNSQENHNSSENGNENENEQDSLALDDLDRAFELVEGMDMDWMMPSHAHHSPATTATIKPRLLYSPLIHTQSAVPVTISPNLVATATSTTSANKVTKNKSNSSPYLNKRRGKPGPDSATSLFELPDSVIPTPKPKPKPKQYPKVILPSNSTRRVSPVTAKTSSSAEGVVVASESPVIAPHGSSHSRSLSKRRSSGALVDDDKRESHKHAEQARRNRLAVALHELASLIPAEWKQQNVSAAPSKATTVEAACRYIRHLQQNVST
Nature of the test: relative binding free energy (BET-seq); higher = weaker binding. Particulars: reference: library average.
With TGATGCACGTGTGAAG, the “relative binding free energy” value stood at 0.01 kcal/mol. As for TAGGGCACGTGGGCAG, the “relative binding free energy” value is -0.24 kcal/mol. Regarding TTTATCACGTGGGTGG, the “relative binding free energy” value came out at 0.01 kcal/mol. For TTTGACACGTGTATCT the value was 0.02 kcal/mol; for GTTTGCACGTGGTCTG, 0.02 kcal/mol; for GGCGGCACGTGCGAGT, 0.03 kcal/mol. TGTAACACGTGAGGCT: the “relative binding free energy” value stood at 0.19 kcal/mol. On to ATTGGCACGTGGCAAA, for which the “relative binding free energy” value is -0.05 kcal/mol. Next, TTTGGCACGTGTCGGA: -0.09 kcal/mol. Next, TTGTGCACGTGGGGCG: -0.1 kcal/mol; AGTGTCACGTGTGTTC: 0.12 kcal/mol. For ATGTACACGTGCTATG the value was -0.06 kcal/mol; for AATTTCACGTGGCGTA, 0.11 kcal/mol.

In the case of GATTGCACGTGTGTAC, the “relative binding free energy” value was 0.05 kcal/mol. Next, CTGGTCACGTGTTGGG: 0.2 kcal/mol. For CGGTTCACGTGTCAGG the value was 0.37 kcal/mol. On to TAGTCCACGTGTAGGG, for which the “relative binding free energy” value was determined as 0.09 kcal/mol. For TTGATCACGTGGGTCG, the “relative binding free energy” value is 0.1 kcal/mol. Next, AATTACACGTGTGGGT: 0.16 kcal/mol; TGCTTCACGTGTTGTA: 0.2 kcal/mol; TATAGCACGTGTTTTA: -0.03 kcal/mol.

As to CATTGCACGTGGTGTT, the “relative binding free energy” value was -0.07 kcal/mol. For GTTAGCACGTGTGAGC the value was 0.02 kcal/mol; for GCCTGCACGTGGTGTT, -0.07 kcal/mol. Next, CTAGCCACGTGGAGGT: 0 kcal/mol; ATTGACACGTGGTAGT: 0.02 kcal/mol; TGTTTCACGTGATTCA: 0.29 kcal/mol. In the case of TGGAACACGTGTTTGA, the “relative binding free energy” value amounted to 0.07 kcal/mol. For CGGAGCACGTGGGGGG the value was -0.25 kcal/mol; for AGAAGCACGTGGGCGG, -0.26 kcal/mol.

Consider GAGATCACGTGTTTTG, for which the “relative binding free energy” value is 0.12 kcal/mol. On to TTTGTCACGTGGTGCC, for which the “relative binding free energy” value is -0.01 kcal/mol. On to GATTGCACGTGGTGAA, for which the “relative binding free energy” value worked out at 0.05 kcal/mol. With TGTTTCACGTGACGGG, the “relative binding free energy” value was 0.26 kcal/mol. For TAAGGCACGTGTCGTG the value was -0.04 kcal/mol; for GTGGGCACGTGTTGTA, 0.01 kcal/mol; for GGTTGCACGTGATGCG, 0.14 kcal/mol. Next, TATCGCACGTGTCTTG: 0.05 kcal/mol; ACTTTCACGTGGCTGT: 0.26 kcal/mol. For CATGTCACGTGTTCGG the value was 0.1 kcal/mol; for TGTGACACGTGTAGAA, -0.03 kcal/mol.

As to TTTGGCACGTGAATGT, the “relative binding free energy” value amounted to 0.2 kcal/mol. Next, TTAGCCACGTGTTTGG: -0.06 kcal/mol; GCTCACACGTGTGGTT: 0.15 kcal/mol.

Take TTTATCACGTGGTCCT: the “relative binding free energy” value was found to be 0.15 kcal/mol.

For the sequence AGGAGCACGTGACGTG, the “relative binding free energy” value turned out to be 0.15 kcal/mol. Next, CGGAGCACGTGGGGAG: -0.18 kcal/mol. Next, GTAGTCACGTGGTGGT: 0.1 kcal/mol. For the sequence TGGTGCACGTGTAGAG, the “relative binding free energy” value came out at 0.13 kcal/mol. TGTGACACGTGGGTTC: the “relative binding free energy” value is -0.18 kcal/mol.

As to AAGTTCACGTGGCGTC, the “relative binding free energy” value was found to be 0.29 kcal/mol. For GGTTTCACGTGGTAGC the value was 0.22 kcal/mol; for TGATACACGTGAGAGT, 0.15 kcal/mol.

Take TGCTTCACGTGGGGAA: the “relative binding free energy” value turned out to be 0.12 kcal/mol. For ATTAGCACGTGAAAGT the value was 0.09 kcal/mol; for GTTATCACGTGTGTGT, 0.19 kcal/mol; for TAGTTCACGTGGGTCT, 0.28 kcal/mol. For the sequence GCTCGCACGTGGTGTA, the “relative binding free energy” value was -0.14 kcal/mol.

As for TTTACCACGTGTATAG, the “relative binding free energy” value is -0.01 kcal/mol. With TCGTGCACGTGGTGTC, the “relative binding free energy” value was -0.13 kcal/mol. As for GGGTACACGTGTAGCT, the “relative binding free energy” value turned out to be 0.21 kcal/mol. Next, TTTGGCACGTGAGTGC: 0.19 kcal/mol; TGTCTCACGTGTTTGA: 0.24 kcal/mol. For GAGGTCACGTGTTTGT the value was 0.12 kcal/mol; for TGGAACACGTGGATGG, 0.09 kcal/mol. GGTACCACGTGGCGGA: the “relative binding free energy” value was -0.03 kcal/mol. For ACTCGCACGTGAGGGG the value was 0.02 kcal/mol. For CGTTTCACGTGCTGTG, the “relative binding free energy” value was 0.19 kcal/mol.

Take TTAGGCACGTGTTATC: the “relative binding free energy” value was -0.15 kcal/mol. In the case of GAATTCACGTGTTGGC, the “relative binding free energy” value worked out at 0.27 kcal/mol. Next, TGGAACACGTGGCGTA: 0.07 kcal/mol. Next, AATAGCACGTGTGCGT: -0.21 kcal/mol. GGGAGCACGTGTTCAG: the “relative binding free energy” value was -0.01 kcal/mol. In the case of TACGTCACGTGTTTTG, the “relative binding free energy” value amounted to 0.02 kcal/mol.

Consider CGAAGCACGTGGGGTA, for which the “relative binding free energy” value was -0.33 kcal/mol.

Consider GCTTGCACGTGAGTCG, for which the “relative binding free energy” value was found to be 0.43 kcal/mol. In the case of AGGTGCACGTGGTAAG, the “relative binding free energy” value was -0.08 kcal/mol.

With GTGTGCACGTGGCTAT, the “relative binding free energy” value was -0.08 kcal/mol. For GATTACACGTGATCGG the value was 0.21 kcal/mol. As to TTAATCACGTGTCAGT, the “relative binding free energy” value was 0.07 kcal/mol. In the case of GTTCTCACGTGTAGTT, the “relative binding free energy” value turned out to be 0.34 kcal/mol. For the sequence ATTGGCACGTGGAAAT, the “relative binding free energy” value was 0.03 kcal/mol.

GTGATCACGTGGGTGT: the “relative binding free energy” value was 0.07 kcal/mol. For ATTCACACGTGGGTGG the value was -0.07 kcal/mol; for GACGTCACGTGGGCGG, 0.02 kcal/mol. With GTGTTCACGTGGGCGC, the “relative binding free energy” value was found to be 0.14 kcal/mol. Take AGAGCCACGTGTGGGG: the “relative binding free energy” value was -0.22 kcal/mol.

On to TTTGTCACGTGGTAGC, for which the “relative binding free energy” value was 0.1 kcal/mol.

In the case of TCTGGCACGTGATCGG, the “relative binding free energy” value is -0.01 kcal/mol. GGTTTCACGTGGGTTT: the “relative binding free energy” value was found to be 0.38 kcal/mol. For the sequence TTTAGCACGTGTCGGC, the “relative binding free energy” value is -0.03 kcal/mol.

Consider TTAAACACGTGGTGCG, for which the “relative binding free energy” value was -0.11 kcal/mol. Regarding TGGTACACGTGCTTAG, the “relative binding free energy” value was -0.1 kcal/mol. Next, TCGTTCACGTGATTAT: 0.22 kcal/mol; TATGCCACGTGGAATG: 0.11 kcal/mol; GGATGCACGTGTGAGT: 0.19 kcal/mol. Next, TTTCGCACGTGTGGAA: 0.21 kcal/mol; GGTCGCACGTGGTGTA: -0.11 kcal/mol; TTTGGCACGTGGTCAC: -0.13 kcal/mol. Next, TTGGTCACGTGTTTCT: 0.18 kcal/mol; GGGCGCACGTGGTCGG: -0.11 kcal/mol; TGGTACACGTGTATTT: 0.05 kcal/mol. With ATGGGCACGTGGCGTC, the “relative binding free energy” value was -0.38 kcal/mol. For TGTGGCACGTGTGCAT the value was -0.13 kcal/mol; for GCGGTCACGTGTGGGC, 0.18 kcal/mol; for GCCGTCACGTGTTGTT, 0.21 kcal/mol.

Take TGAGTCACGTGTTGCG: the “relative binding free energy” value worked out at 0.17 kcal/mol. For AATCACACGTGGGGGC the value was 0.09 kcal/mol; for GTTTTCACGTGGAGGC, 0.26 kcal/mol. Next, GTGGACACGTGAGCGC: 0.35 kcal/mol; AATGTCACGTGCCGGG: -0.03 kcal/mol.

As for TGTTCCACGTGGATGG, the “relative binding free energy” value was -0.05 kcal/mol. Regarding AGGTCCACGTGTTGTG, the “relative binding free energy” value is -0.03 kcal/mol. For GTAGACACGTGCTTGG the value was -0.14 kcal/mol; for TTGGTCACGTGTGTGT, 0.24 kcal/mol. Next, GTGCACACGTGGTTTA: 0.02 kcal/mol; GGCCTCACGTGGTGTG: 0.19 kcal/mol; CGGCACACGTGGTGGG: -0.13 kcal/mol. For TTAGCCACGTGGAGTA the value was -0.06 kcal/mol. Turning to CGCGGCACGTGAATGG, the “relative binding free energy” value amounted to 0.19 kcal/mol.

TGAATCACGTGGTATT: the “relative binding free energy” value was 0.09 kcal/mol.

For the sequence GTTGTCACGTGAAATA, the “relative binding free energy” value was determined as 0.28 kcal/mol. As for TAAAACACGTGATGGG, the “relative binding free energy” value turned out to be 0.24 kcal/mol. As for TGCTCCACGTGGGGTG, the “relative binding free energy” value is -0.21 kcal/mol. With TCGTCCACGTGGAGTG, the “relative binding free energy” value is -0.03 kcal/mol.

TGGGTCACGTGGCATC: the “relative binding free energy” value was determined as 0.12 kcal/mol. In the case of GATGGCACGTGTAGGG, the “relative binding free energy” value came to 0 kcal/mol. With TCAGCCACGTGTTTGT, the “relative binding free energy” value was -0.01 kcal/mol.

For the sequence TTGGTCACGTGGTAAT, the “relative binding free energy” value was determined as 0.12 kcal/mol. As for TTTTTCACGTGTGAAC, the “relative binding free energy” value was determined as 0.3 kcal/mol. For GGTAACACGTGCATTT the value was 0.11 kcal/mol; for TGGGACACGTGGTTGC, -0.03 kcal/mol.

For the sequence CTAGTCACGTGTTTGT, the “relative binding free energy” value was 0.04 kcal/mol. With TGCGGCACGTGTGGGG, the “relative binding free energy” value is -0.06 kcal/mol.

In the case of GAATTCACGTGTAATG, the “relative binding free energy” value is 0.28 kcal/mol. For TAGCGCACGTGGGATA the value was -0.18 kcal/mol; for TTGGTCACGTGAGCGG, 0.17 kcal/mol; for GGTCTCACGTGGGCGG, 0.11 kcal/mol. Next, TCATGCACGTGTGGGG: 0.03 kcal/mol; ATTTGCACGTGCAAGT: -0.08 kcal/mol; TTGTGCACGTGACAGT: 0.04 kcal/mol.

AGATACACGTGGTGTT: the “relative binding free energy” value was -0.07 kcal/mol. Next, CTAGTCACGTGTAGGG: 0 kcal/mol; AGTATCACGTGGGTCT: -0.07 kcal/mol.

In the case of TGAAACACGTGGTAAT, the “relative binding free energy” value worked out at 0.01 kcal/mol. On to AATCACACGTGGGGTT, for which the “relative binding free energy” value was found to be 0.01 kcal/mol.
